From the supplement of paper PMC3334620
In all, about 33,000 sequences were measured (“E-score (-0.5 to 0.5)”: median about -0.035, highest 2% from about 0.34 on). The list shows a part of the results.

Each sequence was assayed against T1, Mot3 (UniProt P54785) (assay: PBM E-score (8-mer binding enrichment) (E-score (-0.5 to 0.5)); higher = stronger / more preferred TF binding; most listed sequences are background and not binding sites). Details: protein concentration: 200 nM; construct: GST-full length.
T1 sequence: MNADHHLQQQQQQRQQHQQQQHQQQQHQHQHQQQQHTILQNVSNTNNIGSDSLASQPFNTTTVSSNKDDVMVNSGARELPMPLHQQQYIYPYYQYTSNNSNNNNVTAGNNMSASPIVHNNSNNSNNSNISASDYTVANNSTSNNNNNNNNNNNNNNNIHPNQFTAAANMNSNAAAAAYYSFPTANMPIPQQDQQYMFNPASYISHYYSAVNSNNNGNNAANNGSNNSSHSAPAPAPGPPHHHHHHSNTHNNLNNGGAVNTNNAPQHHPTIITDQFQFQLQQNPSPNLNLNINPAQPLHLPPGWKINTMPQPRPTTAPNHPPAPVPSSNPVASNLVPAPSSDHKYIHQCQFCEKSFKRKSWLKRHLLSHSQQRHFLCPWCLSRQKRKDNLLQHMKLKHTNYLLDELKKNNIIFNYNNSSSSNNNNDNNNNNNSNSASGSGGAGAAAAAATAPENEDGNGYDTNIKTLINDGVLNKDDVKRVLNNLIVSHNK
Summary of the method: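 Detection of bound protein used fluorescent anti-GST, with scans normalised by masliner. The proteins were GST-tagged yeast transcription factors applied at about 100-200 nM to universal all-10-mer Agilent arrays made double-stranded by primer extension. Each ungapped eight-base word, pooled with its reverse complement, was scored with an E-score from the Universal PBM Analysis Suite.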

Going from ACGGCGGG to CGGGGCGC, the “PBM E-score” value falls from -0.205 to -0.33.

Compared with CCAAACCC, AACAGGCC is higher in “PBM E-score” value: -0.198 for the first, 0.234 for the second.

First: ATGTAATG
Second: TTCAGAAA
The “PBM E-score” value of the first is higher: 0.395 for the first, 0.088 for the second.

First: CAAGCCTC
Second: CGCTCTAC
The “PBM E-score” value of the first is lower: -0.0949 for the first, 0.105 for the second.

Going from TATTGGAA to ACTTTACA, the “PBM E-score” value rises from -0.00815 to 0.313.

First: AGGCTCGG
Second: ATTGCCGG
The “PBM E-score” value of the first is higher: 0.146 for the first, -0.186 for the second.

Compared with CAGCGCAC, CCCGACTA is higher in “PBM E-score” value: -0.224 for the first, -0.0141 for the second.

Compared with CGGATAAA, GCAGGGGC is lower in “PBM E-score” value: 0.066 for the first, 0.0422 for the second.

First: GTCTGATA
Second: AGAAACCG
The “PBM E-score” value of the first is higher: 0.0245 for the first, -0.0436 for the second.

Compared with CCTGCTCG, CTCGACGA is lower in “PBM E-score” value: 0.0299 for the first, -0.346 for the second.

First: CTCAGGGA
Second: GCCAATCC
The “PBM E-score” value of the first is higher: -0.251 for the first, -0.281 for the second.

Going from AAAGTAGA to GCACTGGA, the “PBM E-score” value falls from 0.00818 to -0.195.

Compared with GATCGCTA, ATGCGGCA is higher in “PBM E-score” value: -0.156 for the first, -0.115 for the second.

Going from CCATCCGA to ATTTGACA, the “PBM E-score” value rises from -0.108 to 0.142.

Compared with ATAATCAA, TCGGGAAA is higher in “PBM E-score” value: -0.0764 for the first, -0.064 for the second.

Compared with GTCTAATA, TATGATAA is lower in “PBM E-score” value: 0.212 for the first, 0.142 for the second.

Going from AAACGCAT to CTAAGGGC, the “PBM E-score” value falls from 0.0226 to -0.149.

Going from GCAATTTA to AGAGTGCC, the “PBM E-score” value rises from 0.182 to 0.198.

First: CGGCGGAG
Second: CTGTGATC
The “PBM E-score” value of the first is lower: -0.219 for the first, -0.157 for the second.

Going from ACCGGAAA to GGATTTAA, the “PBM E-score” value rises from -0.0696 to -0.0105.

Going from TCCCCCAA to TGGCGGAA, the “PBM E-score” value rises from -0.254 to -0.0954.

Going from GCCCATAC to AAATCTAT, the “PBM E-score” value falls from 0.0461 to -0.00436.

First: ATAGGTGA
Second: CTACTCGC
The “PBM E-score” value of the first is lower: -0.0643 for the first, -0.0425 for the second.

Going from CCGACCAG to TGCTGCAA, the “PBM E-score” value rises from -0.153 to 0.0627.

Going from AAGCCAGG to ATCCCCGC, the “PBM E-score” value falls from -0.00322 to -0.161.

Going from GATTATAC to CTGGTGCA, the “PBM E-score” value falls from -0.126 to -0.2.

Compared with CATGACTC, CCGGAACC is lower in “PBM E-score” value: -0.133 for the first, -0.239 for the second.

Compared with CAGAGCAA, CAGCCAGC is lower in “PBM E-score” value: 0.0904 for the first, -0.264 for the second.

Going from ATAAGACC to GGCGTCCC, the “PBM E-score” value falls from -0.148 to -0.317.

Going from ATAATCTA to CGCCCTAA, the “PBM E-score” value falls from 0.0717 to -0.042.

Compared with GACACCAA, CTGTCCCC is lower in “PBM E-score” value: -0.0329 for the first, -0.296 for the second.

First: ACCGGCCT
Second: CGCCGGAA
The “PBM E-score” value of the first is higher: -0.0904 for the first, -0.224 for the second.

First: AACCTTGA
Second: TATAGCAA
The “PBM E-score” value of the first is higher: 0.146 for the first, 0.0534 for the second.

First: CAGAAGTC
Second: CTTTAATC
The “PBM E-score” value of the first is lower: -0.17 for the first, -0.0933 for the second.

Compared with GACTGTCA, CAAGGGAA is higher in “PBM E-score” value: -0.16 for the first, -0.0253 for the second.

Compared with CATACGTC, GTCTTAAA is lower in “PBM E-score” value: -0.0712 for the first, -0.131 for the second.

Compared with ACCGCGCC, AGTGAACC is higher in “PBM E-score” value: -0.204 for the first, -0.0253 for the second.

Going from CACGAAAG to AATTCGTG, the “PBM E-score” value rises from 0.107 to 0.131.

Going from ATGCACAC to CGAACTTC, the “PBM E-score” value falls from 0.0744 to 0.00147.

Going from CAAAGCGA to CCTTGCTC, the “PBM E-score” value falls from -0.0399 to -0.214.

Going from CATGATAG to AACGAGAG, the “PBM E-score” value falls from 0.0665 to -0.0181.

Compared with TAGAGCTA, CTTTGTTC is higher in “PBM E-score” value: 0.00065 for the first, 0.207 for the second.

Compared with GGCGCCTA, AATACGGA is lower in “PBM E-score” value: 0.306 for the first, 0.0887 for the second.
